# The supplement of paper PMC8728848
# Some of the results follow.
# B1: Gal-9-hFc (Mus musculus), O08573-2 (protein)
# chain: MALFSAQSPYINPIIPFTGPIQGGLQEGLQVTLQGTTKSFAQRFVVNFQNSFNGNDIAFHFNPRFEEGGYVVCNTKQNGQWGPEERKMQMPFQKGMPFELCFLVQRSEFKVMVNKKFFVQYQHRVPYHLVDTIAVSGCLKLSFITFQTQNFRPAHQAPMAQTTIHMVHSTPGQMFSTPGIPPVVYPTPAYTIPFYTPIPNGLYPSKSIMISGNVLPDATRFHINLRCGGDIAFHLNPRFNENAVVRNTQINNSWGQEERSLLGRMPFSRGQSFSVWIICEGHCFKVAVNGQHMCEYYHRLKNLQDINTLEVAGDIQLTHVQT
# Key:
# Assay in all cases: glycan array binding signal (z-score within array); higher = stronger binding
# Conditions in all cases: glycan notation: IUPAC condensed, linker removed
# Neu5Ac(a2-3)Gal = biological target: Neu5Ac(a2-3)Gal
# Method in brief: (§1)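 Negative Z-scores can be read as non-binding. The Z-score is calculated within each array and then averaged across arrays of one protein sequence at different concentrations or buffers and across linkers. Arrays, 3228 in all, were curated from the Consortium for Functional Glycomics database and kept only where the protein sequence was available.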
# [1] = biological target: Neu5Ac(a2-3)Gal(b1-3)GalNAc
# Method in brief: as §1
# [2] = biological target: Neu5Ac(a2-3)Gal(b1-3)GalNAc(b1-3)Gal(a1-4)Gal(b1-4)Glc
# Method in brief: as §1
# [3] = biological target: Neu5Ac(a2-3)Gal(b1-3)GalNAc(b1-4)Gal(b1-4)Glc
# Method in brief: as §1
# [4] = biological target: Neu5Ac(a2-3)Gal(b1-3)GalNAc(b1-4)[Neu5Ac(a2-3)]Gal(b1-4)Glc
# Method in brief: as §1
# [5] = biological target: Neu5Ac(a2-3)Gal(b1-3)GalNAc(b1-4)[Neu5Ac(a2-8)Neu5Ac(a2-3)]Gal(b1-4)Glc
# Method in brief: as §1
# [6] = biological target: Neu5Ac(a2-3)Gal(b1-3)GalNAc6S
# Method in brief: as §1
# [7] = biological target: Neu5Ac(a2-3)Gal(b1-3)GlcNAc
# Method in brief: as §1
# [8] = biological target: Neu5Ac(a2-3)Gal(b1-3)GlcNAc(b1-2)Man
# Method in brief: as §1
# [9] = biological target: Neu5Ac(a2-3)Gal(b1-3)GlcNAc(b1-2)Man(a1-3)[GlcNAc(b1-4)][Neu5Ac(a2-3)Gal(b1-3)GlcNAc(b1-2)Man(a1-6)]Man(b1-4)GlcNAc(b1-4)GlcNAc
# Method in brief: as §1
# [10] = biological target: Neu5Ac(a2-3)Gal(b1-3)GlcNAc(b1-2)Man(a1-3)[Neu5Ac(a2-3)Gal(b1-3)GlcNAc(b1-2)Man(a1-6)]Man(b1-4)GlcNAc(b1-4)GlcNAc
# Method in brief: as §1
# [11] = biological target: Neu5Ac(a2-3)Gal(b1-3)GlcNAc(b1-2)[Neu5Ac(a2-3)Gal(b1-3)GlcNAc(b1-4)]Man(a1-6)[Neu5Ac(a2-3)Gal(b1-3)GlcNAc(b1-2)Man(a1-3)]Man(b1-4)GlcNAc(b1-4)GlcNAc
# Method in brief: as §1
# [12] = biological target: Neu5Ac(a2-3)Gal(b1-3)GlcNAc(b1-3)Gal(b1-3)GlcNAc
# Method in brief: as §1
# [13] = biological target: Neu5Ac(a2-3)Gal(b1-3)GlcNAc(b1-3)Gal(b1-4)GlcNAc
# Method in brief: as §1
# [14] = biological target: Neu5Ac(a2-3)Gal(b1-3)GlcNAc(b1-3)GalNAc
# Method in brief: as §1
# [15] = biological target: Neu5Ac(a2-3)Gal(b1-3)GlcNAc(b1-6)GalNAc
# Method in brief: as §1
# [16] = biological target: Neu5Ac(a2-3)Gal(b1-3)GlcNAc6S
# Method in brief: as §1
# [17] = biological target: Neu5Ac(a2-3)Gal(b1-3)[Fuc(a1-4)]GlcNAc
# Method in brief: as §1
# [18] = biological target: Neu5Ac(a2-3)Gal(b1-3)[Fuc(a1-4)]GlcNAc(b1-3)Gal(b1-3)[Fuc(a1-4)]GlcNAc
# Method in brief: as §1
# [19] = biological target: Neu5Ac(a2-3)Gal(b1-3)[Fuc(a1-4)]GlcNAc(b1-3)Gal(b1-4)[Fuc(a1-3)]GlcNAc
# Method in brief: as §1
# [20] = biological target: Neu5Ac(a2-3)Gal(b1-3)[GlcNAc(b1-6)]GalNAc
# Method in brief: as §1
# [21] = biological target: Neu5Ac(a2-3)Gal(b1-3)[Neu5Ac(a2-6)]GalNAc
# Method in brief: as §1
# [22] = biological target: Neu5Ac(a2-3)Gal(b1-3)[Neu5Ac(a2-6)]GlcNAc(b1-3)[Fuc(a1-3)[Gal(b1-4)]GlcNAc(b1-6)]Gal(b1-4)Glc
# Method in brief: as §1
# [23] = biological target: Neu5Ac(a2-3)Gal(b1-3)]Neu5Ac(a2-3)Gal(b1-4)]GlcNAc
# Method in brief: as §1
# Neu5Ac(a2-3)Gal(b1-4)Glc = biological target: Neu5Ac(a2-3)Gal(b1-4)Glc
# Method in brief: as §1
# [24] = biological target: Neu5Ac(a2-3)Gal(b1-4)GlcNAc
# Method in brief: as §1
# [25] = biological target: Neu5Ac(a2-3)Gal(b1-4)GlcNAc(b1-2)Man
# Method in brief: as §1
# [26] = biological target: Neu5Ac(a2-3)Gal(b1-4)GlcNAc(b1-2)Man(a1-3)[GlcNAc(b1-4)][Neu5Ac(a2-3)Gal(b1-4)GlcNAc(b1-2)Man(a1-6)]Man(b1-4)GlcNAc(b1-4)GlcNAc
# Method in brief: as §1
# [27] = biological target: Neu5Ac(a2-3)Gal(b1-4)GlcNAc(b1-2)Man(a1-3)[Neu5Ac(a2-3)Gal(b1-4)GlcNAc(b1-2)Man(a1-6)]Man(b1-4)GlcNAc(b1-4)GlcNAc
# Method in brief: as §1
# [28] = biological target: Neu5Ac(a2-3)Gal(b1-4)GlcNAc(b1-2)Man(a1-3)[Neu5Ac(a2-3)Gal(b1-4)GlcNAc(b1-2)Man(a1-6)]Man(b1-4)GlcNAc(b1-4)[Fuc(a1-6)]GlcNAc
# Method in brief: as §1
# [29] = biological target: Neu5Ac(a2-3)Gal(b1-4)GlcNAc(b1-2)Man(a1-3)[Neu5Ac(a2-6)Gal(b1-4)GlcNAc(b1-2)Man(a1-6)]Man(b1-4)GlcNAc(b1-4)GlcNAc
# Method in brief: as §1
# [30] = biological target: Neu5Ac(a2-3)Gal(b1-4)GlcNAc(b1-2)[Neu5Ac(a2-3)Gal(b1-4)GlcNAc(b1-4)]Man(a1-3)[GlcNAc(b1-4)][Neu5Ac(a2-3)Gal(b1-4)GlcNAc(b1-2)[Neu5Ac(a2-3)Gal(b1-4)GlcNAc(b1-6)]Man(a1-6)]Man(b1-4)GlcNAc(b1-4)GlcNAc
# Method in brief: as §1
# [31] = biological target: Neu5Ac(a2-3)Gal(b1-4)GlcNAc(b1-2)[Neu5Ac(a2-3)Gal(b1-4)GlcNAc(b1-4)]Man(a1-3)[GlcNAc(b1-4)][Neu5Ac(a2-3)Gal(b1-4)GlcNAc(b1-4)Man(a1-6)]Man(b1-4)GlcNAc(b1-4)GlcNAc
# Method in brief: as §1
# [32] = biological target: Neu5Ac(a2-3)Gal(b1-4)GlcNAc(b1-2)[Neu5Ac(a2-3)Gal(b1-4)GlcNAc(b1-6)]Man(a1-6)[Neu5Ac(a2-3)Gal(b1-4)GlcNAc(b1-2)Man(a1-3)][GlcNAc(b1-4)]Man(b1-4)GlcNAc(b1-4)GlcNAc
# Method in brief: as §1
# [33] = biological target: Neu5Ac(a2-3)Gal(b1-4)GlcNAc(b1-3)Gal
# Method in brief: as §1
# [34] = biological target: Neu5Ac(a2-3)Gal(b1-4)GlcNAc(b1-3)Gal(b1-3)GlcNAc
# Method in brief: as §1
# [35] = biological target: Neu5Ac(a2-3)Gal(b1-4)GlcNAc(b1-3)Gal(b1-4)GlcNAc
# Method in brief: as §1
binder,measurement,setting,value
B1,glycan array binding signal (z-score),Neu5Ac(a2-3)Gal,-0.463
same,glycan array binding signal (z-score),[1],0.302
same,glycan array binding signal (z-score),[2],-0.017
same,glycan array binding signal (z-score),[3],0.063
same,glycan array binding signal (z-score),[4],-0.079
same,glycan array binding signal (z-score),[5],-0.474
same,glycan array binding signal (z-score),[6],-0.316
same,glycan array binding signal (z-score),[7],-0.093
same,glycan array binding signal (z-score),[8],-0.372
same,glycan array binding signal (z-score),[9],0.569
same,glycan array binding signal (z-score),[10],1.16
same,glycan array binding signal (z-score),[11],-0.482
same,glycan array binding signal (z-score),[12],-0.12
same,glycan array binding signal (z-score),[13],-0.13
same,glycan array binding signal (z-score),[14],-0.372
same,glycan array binding signal (z-score),[15],-0.256
same,glycan array binding signal (z-score),[16],-0.023
same,glycan array binding signal (z-score),[17],-0.417
same,glycan array binding signal (z-score),[18],-0.306
same,glycan array binding signal (z-score),[19],-0.428
same,glycan array binding signal (z-score),[20],-0.36
same,glycan array binding signal (z-score),[21],-0.277
same,glycan array binding signal (z-score),[22],-0.565
same,glycan array binding signal (z-score),[23],-0.473
same,glycan array binding signal (z-score),Neu5Ac(a2-3)Gal(b1-4)Glc,0.865
same,glycan array binding signal (z-score),[24],-0.36
same,glycan array binding signal (z-score),[25],3.47
same,glycan array binding signal (z-score),[26],-0.387
same,glycan array binding signal (z-score),[27],-0.294
same,glycan array binding signal (z-score),[28],-0.407
same,glycan array binding signal (z-score),[29],1.58
same,glycan array binding signal (z-score),[30],-0.527
same,glycan array binding signal (z-score),[31],-0.359
same,glycan array binding signal (z-score),[32],-0.446
same,glycan array binding signal (z-score),[33],-0.264
same,glycan array binding signal (z-score),[34],-0.186
same,glycan array binding signal (z-score),[35],-0.313
